Among the data in the supplement of paper PMC9446081 are relative growth values, retold here.

Structures are written as SMILES. In all, about 39,000 compounds went through this assay and about 220 (0.56%) showed activity. The list shows a part of the results.
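Note: static incubation at 37 °C against the wild-type strain, values averaged over two biological replicates.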

The test system of the assay is Escherichia coli K-12 BW25113. Briefly: relative growth (OD600 normalised to plate interquartile mean) (fraction); higher = less growth inhibition, active = 0.2 or less. The settings on record: 50 µM; LB; incubation time: overnight (16-24 h).
For the compound `C[C@H](CO)N1C[C@H](C)[C@@H](CN(C)CC2CCCCC2)OCCCC[C@H](C)Oc2ccc(NC(=O)Nc3cccc4ccccc34)cc2C1=O`, the relative growth is inactive: 0.975. As to `C[C@@H]1CN([C@@H](C)CO)C(=O)Cc2cc(NC(=O)CCC(F)(F)F)ccc2O[C@H]1CN(C)S(C)(=O)=O`, the relative growth is inactive: 1.02. In the case of `COc1ccc(NC(=O)N(C)C[C@@H]2Oc3ccc(NS(C)(=O)=O)cc3C(=O)N([C@H](C)CO)C[C@@H]2C)cc1` it was inactive: 1.02. With `CC[C@@H]1OC(=O)[C@@H](C)[C@H](O[C@H]2C[C@@](C)(OC)[C@@H](O)[C@H](C)O2)[C@@H](C)[C@H](O)[C@@](C)(O[C@@H]2O[C@H](C)C[C@H](N(C)C)[C@H]2O)C[C@H](C)C(=O)[C@@H](C)[C@H](O)[C@@]1(C)O`, the relative growth is inactive: 0.427.

With `C[C@@H]1CN([C@H](C)CO)C(=O)c2cc(NC(=O)C3CC3)ccc2O[C@H]1CN(C)S(=O)(=O)c1cn(C)cn1`, the relative growth was inactive: 1.05. In the case of `C[C@H]1CCCCO[C@H](CN(C)Cc2ccc(C(F)(F)F)cc2)[C@@H](C)CN([C@@H](C)CO)C(=O)c2cc(NC(=O)Nc3ccccc3)ccc2O1` it was inactive: 0.988. With `COc1ccc(S(=O)(=O)Nc2ccc3c(c2)CC(=O)N([C@@H](C)CO)C[C@@H](C)[C@@H](CN(C)S(C)(=O)=O)O3)cc1`, the relative growth was inactive: 0.988. Under `COc1ccc(NC(=O)N(C)C[C@@H]2OCCCC[C@@H](C)Oc3ccc(NC(=O)c4ccncc4)cc3C(=O)N([C@@H](C)CO)C[C@H]2C)cc1` stands inactive: 1.01; under `C=CC[C@@H](CC(=O)N(CCO)Cc1ccccc1)C(=O)NC[C@H](OC(=O)[C@H](CC=C)NC(=O)OCC1c2ccccc2-c2ccccc21)c1ccccc1`, inactive: 0.935; under `NS(=O)(=O)c1ncn(Cc2ccccc2)n1`, inactive: 0.939. Under `CC(C)NC(=O)Nc1ccc2c(c1)C(=O)N([C@H](C)CO)C[C@@H](C)[C@H](CN(C)Cc1ccc(C(F)(F)F)cc1)OCCCC[C@H](C)O2` stands inactive: 0.99.

With `COCC#Cc1cnc2c(c1)C(=O)N([C@H](C)CO)C[C@H](C)[C@@H](CN(C)C(C)=O)O2`, the relative growth is inactive: 0.986.

Take `O=C(NO)c1cccc(C(=O)N/N=C/[C@@H](O)[C@@H](O)[C@H](O)[C@H](O)CO)c1`: the relative growth is inactive: 0.98. `O=C(CCCCCC(=O)Nc1ccccc1O)N/N=C/C[P+](c1ccccc1)(c1ccccc1)c1ccccc1`: the relative growth was inactive: 1.01. Under `O=C(NCC(O)CO)c1c(I)c(C(=O)NCC(O)CO)c(I)c(N(CCO)C(=O)CO)c1I` (stereo not given) stands inactive: 1.1. In the case of `Cn1cnc(CCNC(=O)C[C@H]2CC[C@@H]3[C@H](COC[C@@H](O)CN3C(=O)C3CC3)O2)c1` it was inactive: 0.96. For the compound `C[C@@H]1CN([C@@H](C)CO)C(=O)c2cc(NC(=O)Nc3ccc4c(c3)OCO4)ccc2O[C@H]1CN(C)C(=O)Nc1cccc2ccccc12`, the relative growth was inactive: 1.01. With `C[C@H]1CN([C@@H](C)CO)C(=O)c2cc(NS(C)(=O)=O)ccc2O[C@H]1CN(C)S(=O)(=O)c1ccccc1`, the relative growth is inactive: 0.994.

Regarding `Cc1noc(C)c1NC(=O)Nc1cccc2c1O[C@@H](CN(C)Cc1ccc(-c3ccccc3)cc1)[C@H](C)CN([C@@H](C)CO)C2=O`, the relative growth was inactive: 1.01. In the case of `COc1ccc(S(=O)(=O)N(C)C[C@@H]2Oc3c(NC(=O)c4cnccn4)cccc3C(=O)N([C@@H](C)CO)C[C@H]2C)cc1` it was inactive: 1.01; in that of `C[C@H](CO)N1C[C@H](C)[C@@H](CN(C)S(=O)(=O)c2cn(C)cn2)Oc2ncc(Br)cc2C1=O`, inactive: 0.937.

`O=C(C[C@@H]1CC[C@@H]2[C@H](COC[C@@H](O)CN2S(=O)(=O)c2ccc(F)cc2)O1)NCCN1CCCCC1`: the relative growth is inactive: 1.02.

Consider `CCc1cn([C@H]2C[C@@H](O)[C@@H](CO)O2)c(=O)[nH]c1=O`, for which the relative growth was inactive: 0.827. In the case of `COc1ccc(S(=O)(=O)N(C)C[C@H]2Oc3ccc(NS(=O)(=O)c4ccc(C)cc4)cc3C(=O)N([C@@H](C)CO)C[C@H]2C)cc1` it was inactive: 1.03; in that of `O=C(C[C@@H]1C[C@H]2c3cc(NC(=O)NC4CCCC4)ccc3O[C@H]2[C@H](CO)O1)NCCN1CCCCC1`, inactive: 1; in that of `C[C@H](CO)N1C[C@H](C)[C@H](CN(C)Cc2ccc(Oc3ccccc3)cc2)Oc2ccc(NC(=O)Nc3ccc(F)cc3)cc2C1=O`, inactive: 0.892. Under `C[C@H](CO)N1C[C@H](C)[C@H](CN(C)C(=O)Nc2ccc(C(F)(F)F)cc2)Oc2ccc(NC(=O)CCC(F)(F)F)cc2CC1=O` stands inactive: 0.998; under `CC(=O)N(C)C[C@@H]1Oc2ncc(C#C[C@H](C)O)cc2C(=O)N([C@H](C)CO)C[C@@H]1C`, inactive: 1.02. Under `CCn1cc(C(=O)N2CCN(C)CC2)c(=O)c2cc(S(=O)(=O)N(C)C)ccc21` stands inactive: 0.974; under `C[C@H]1CN([C@@H](C)CO)S(=O)(=O)c2ccc(C#Cc3ccccc3F)cc2O[C@H]1CN(C)C(=O)Cc1cccnc1`, inactive: 0.991. Regarding `CN1CCN(C(=O)C[C@H]2C[C@H]3c4cc(NS(=O)(=O)c5ccc(F)cc5)ccc4O[C@H]3[C@H](CO)O2)CC1`, the relative growth is inactive: 0.972. Take `C[C@@H]1CN([C@@H](C)CO)C(=O)c2cc(NC(=O)Nc3ccc(C(F)(F)F)cc3)ccc2O[C@@H](C)CCCCO[C@@H]1CN(C)S(=O)(=O)c1ccc(Cl)cc1`: the relative growth is inactive: 1.02. Under `C[C@@H]1CN([C@@H](C)CO)C(=O)c2cc(NC(=O)C3CCCCC3)ccc2O[C@@H](C)CCCCO[C@@H]1CN(C)C(=O)c1ccncc1` stands inactive: 1.01. Regarding `Cc1cccc(Oc2ccc(NC(=O)C3CCC(C)CC3)cc2)c1` (stereo not given), the relative growth is inactive: 0.992. In the case of `O=c1[nH]c(=O)n([C@H]2C[C@H](O)[C@@H](CO)O2)cc1Br` it was inactive: 0.944. In the case of `Cc1ccc(S(=O)(=O)Nc2ccc3c(c2)C(=O)N([C@H](C)CO)C[C@H](C)[C@H](CN(C)C(=O)c2ccccc2)OCCCC[C@H](C)O3)cc1` it was inactive: 1.01; in that of `COc1ccc2c3c(n(c2c1)C)[C@H](CO)N(C[C@]13CN(C1)C(=O)Nc1cccc(c1)F)C(=O)CN1CCOCC1`, inactive: 1.01; in that of `CCOC(=O)CN(C#N)c1nc(C)cc(C)n1`, inactive: 0.904. Consider `C[C@@H]1CN([C@@H](C)CO)C(=O)Cc2cc(NS(=O)(=O)c3ccccc3)ccc2O[C@@H]1CN(C)Cc1ccncc1`, for which the relative growth is inactive: 1. In the case of `CC(C)NC(=O)N[C@H]1C=C[C@H](CC(=O)NCCCN(C)C)O[C@@H]1CO` it was inactive: 1.03; in that of `C[C@@H]1CN([C@H](C)CO)C(=O)c2cc(NC(=O)Nc3ccccc3)ccc2O[C@@H](C)CCCCO[C@H]1CN(C)C(=O)Nc1ccc(C(F)(F)F)cc1`, inactive: 1.02. As to `COc1ccc(S(=O)(=O)Nc2ccc3c(c2)C(=O)N([C@@H](C)CO)C[C@H](C)[C@H](CN(C)C(=O)Nc2cccc4ccccc24)OCCCC[C@H](C)O3)cc1`, the relative growth was inactive: 1.03. Under `CNC(=O)C[C@H]1CC[C@@H]2[C@H](COC[C@H](O)CN2C(=O)c2ccc3c(c2)OCO3)O1` stands inactive: 0.99; under `Cc1noc(C)c1NC(=O)Nc1ccc2c(c1)C(=O)N([C@@H](C)CO)C[C@H](C)[C@@H](CN(C)C(=O)Nc1cccc3ccccc13)OCCCC[C@H](C)O2`, inactive: 1.03; under `CC(=O)c1cc(Cl)c(C)cc1O`, inactive: 0.981. With `COc1ccccc1CNC(=O)C[C@H]1C[C@@H]2c3cc(NC(=O)C4CCOCC4)ccc3O[C@@H]2[C@H](CO)O1`, the relative growth was inactive: 1.01. Take `[O-][NH2+]N1CCCCCCC1`: the relative growth is inactive: 1.03.

`Cc1noc(C)c1NC(=O)N(C)C[C@H]1Oc2ccc(NS(=O)(=O)c3ccccc3)cc2C(=O)N([C@@H](C)CO)C[C@@H]1C`: the relative growth is inactive: 1.01.

Take `O=C(CN1CCOCC1)NCC[C@@H]1CC[C@H](NC(=O)c2ccc3c(c2)OCO3)[C@H](CO)O1`: the relative growth is inactive: 0.944. In the case of `C[C@@H]1CCCCO[C@H](CN(C)S(=O)(=O)c2ccc(Cl)cc2)[C@@H](C)CN([C@H](C)CO)C(=O)c2cc(NC(=O)Nc3ccc(C(F)(F)F)cc3)ccc2O1` it was inactive: 1; in that of `COCC#Cc1cnc2c(c1)C(=O)N([C@@H](C)CO)C[C@@H](C)[C@@H](CN(C)C(=O)Nc1cc(F)ccc1F)O2`, inactive: 1; in that of `C[C@@H]1CN([C@@H](C)CO)C(=O)c2cccc(NC(=O)c3cnccn3)c2O[C@@H]1CN(C)S(=O)(=O)c1ccccc1`, inactive: 1. In the case of `CCC(=O)N1C[C@]2(C1)CN([C@H](CO)c1[nH]c3cc(ccc3c12)OC)C(=O)CN1CCOCC1` it was inactive: 1. Under `C[C@@H]1CN([C@H](C)CO)C(=O)c2cc(C#Cc3cccc(F)c3)cnc2O[C@H]1CN(C)C(=O)C1CCOCC1` stands inactive: 0.996. As for `COc1ccc2c3c(n(c2c1)C)[C@H](CO)N(Cc1cc(cc(c1)OC)OC)C[C@]13CCN(CC1)C(=O)CN1CCOCC1`, the relative growth was inactive: 0.999.

On to `Cc1ccccc1S(=O)(=O)N1C[C@H](O)COC[C@@H]2O[C@H](CC(=O)N3CCC(Cc4ccccc4)CC3)CC[C@H]21`, for which the relative growth was inactive: 0.826. In the case of `C[C@@H]1CN([C@@H](C)CO)C(=O)Cc2cc(NC(=O)c3ccncc3)ccc2O[C@@H]1CN(C)S(=O)(=O)c1cccs1` it was inactive: 1.02; in that of `COc1ccc(C#Cc2cnc3c(c2)C(=O)N([C@@H](C)CO)C[C@@H](C)[C@H](CN(C)C(=O)CC2CC2)O3)cc1`, inactive: 1.02; in that of `CC1(Cn2ccnn2)C(C(=O)O)N2C(=O)CC2S1(=O)=O` (stereo not given), inactive: 0.985.

As to `COCC#Cc1ccc2c(c1)O[C@@H](CN(C)C(=O)Nc1ccc(OC)cc1)[C@H](C)CN([C@H](C)CO)S2(=O)=O`, the relative growth was inactive: 1.01.
